Measurements published in publication PMC9388692, “Nuclear import of PTPN18 inhibits breast cancer metastasis mediated by MVP and importin β2” (Cell Death & Disease, 2022).
Results are given in words; binding and its absence hold for the method and conditions named. In cells and extracts the contact can be indirect. Some binding calls cover weakened binding; strength is not graded here. For some assays here: Sequences can lack the tags named with a protein.

The chains behind the UniProt entries cited, without tags or fusion partners. Where a name states a change or a piece, a line headed by the entry shows the natural chain unless it says otherwise. A line that says so, or that is headed by a name, gives the form on record, which may keep a tag or linker.
UniProt Q14974: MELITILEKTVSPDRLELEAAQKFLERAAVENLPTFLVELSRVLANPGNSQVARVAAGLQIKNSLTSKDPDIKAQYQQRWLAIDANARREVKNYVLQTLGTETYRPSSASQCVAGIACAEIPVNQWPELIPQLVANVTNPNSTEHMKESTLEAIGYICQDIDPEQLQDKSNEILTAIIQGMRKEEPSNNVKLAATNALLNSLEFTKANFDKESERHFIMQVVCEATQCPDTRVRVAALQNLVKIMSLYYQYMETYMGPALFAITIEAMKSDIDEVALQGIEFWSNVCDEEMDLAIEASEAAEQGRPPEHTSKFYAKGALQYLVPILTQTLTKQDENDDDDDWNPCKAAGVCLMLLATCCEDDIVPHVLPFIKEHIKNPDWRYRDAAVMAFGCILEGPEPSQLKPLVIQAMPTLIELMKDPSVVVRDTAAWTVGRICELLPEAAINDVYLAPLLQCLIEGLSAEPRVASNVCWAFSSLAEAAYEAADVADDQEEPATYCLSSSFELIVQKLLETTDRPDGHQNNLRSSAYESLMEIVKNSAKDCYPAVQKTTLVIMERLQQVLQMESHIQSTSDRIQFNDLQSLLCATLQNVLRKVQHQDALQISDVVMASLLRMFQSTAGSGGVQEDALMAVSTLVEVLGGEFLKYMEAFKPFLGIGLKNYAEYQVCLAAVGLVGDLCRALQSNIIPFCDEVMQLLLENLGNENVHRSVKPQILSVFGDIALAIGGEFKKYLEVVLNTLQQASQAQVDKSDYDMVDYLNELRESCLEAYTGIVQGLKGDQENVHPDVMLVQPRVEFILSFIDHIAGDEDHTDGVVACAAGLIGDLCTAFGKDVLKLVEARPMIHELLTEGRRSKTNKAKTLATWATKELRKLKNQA
UniProt Q92973: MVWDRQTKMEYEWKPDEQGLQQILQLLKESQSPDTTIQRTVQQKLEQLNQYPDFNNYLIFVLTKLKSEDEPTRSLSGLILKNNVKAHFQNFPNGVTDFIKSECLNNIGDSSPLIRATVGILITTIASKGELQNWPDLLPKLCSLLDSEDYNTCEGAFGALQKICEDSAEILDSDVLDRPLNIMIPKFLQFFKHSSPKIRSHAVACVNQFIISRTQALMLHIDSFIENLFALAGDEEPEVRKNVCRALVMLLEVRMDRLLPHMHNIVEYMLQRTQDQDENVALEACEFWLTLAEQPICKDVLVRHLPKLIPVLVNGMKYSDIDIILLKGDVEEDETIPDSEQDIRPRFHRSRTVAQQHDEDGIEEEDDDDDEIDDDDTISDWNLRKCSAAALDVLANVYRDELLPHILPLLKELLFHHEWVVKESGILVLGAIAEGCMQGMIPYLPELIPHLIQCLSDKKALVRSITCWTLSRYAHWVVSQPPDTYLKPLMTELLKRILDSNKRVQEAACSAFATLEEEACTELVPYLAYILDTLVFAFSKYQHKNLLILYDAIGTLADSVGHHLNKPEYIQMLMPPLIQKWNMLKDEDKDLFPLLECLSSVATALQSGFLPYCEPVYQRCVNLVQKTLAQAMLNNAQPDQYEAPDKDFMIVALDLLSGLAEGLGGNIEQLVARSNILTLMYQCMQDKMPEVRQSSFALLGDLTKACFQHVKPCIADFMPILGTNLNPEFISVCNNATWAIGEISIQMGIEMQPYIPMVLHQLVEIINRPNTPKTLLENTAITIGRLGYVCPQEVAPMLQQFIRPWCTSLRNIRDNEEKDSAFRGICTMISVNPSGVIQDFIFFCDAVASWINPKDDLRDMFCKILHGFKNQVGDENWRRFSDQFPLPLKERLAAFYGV
UniProt Q14764: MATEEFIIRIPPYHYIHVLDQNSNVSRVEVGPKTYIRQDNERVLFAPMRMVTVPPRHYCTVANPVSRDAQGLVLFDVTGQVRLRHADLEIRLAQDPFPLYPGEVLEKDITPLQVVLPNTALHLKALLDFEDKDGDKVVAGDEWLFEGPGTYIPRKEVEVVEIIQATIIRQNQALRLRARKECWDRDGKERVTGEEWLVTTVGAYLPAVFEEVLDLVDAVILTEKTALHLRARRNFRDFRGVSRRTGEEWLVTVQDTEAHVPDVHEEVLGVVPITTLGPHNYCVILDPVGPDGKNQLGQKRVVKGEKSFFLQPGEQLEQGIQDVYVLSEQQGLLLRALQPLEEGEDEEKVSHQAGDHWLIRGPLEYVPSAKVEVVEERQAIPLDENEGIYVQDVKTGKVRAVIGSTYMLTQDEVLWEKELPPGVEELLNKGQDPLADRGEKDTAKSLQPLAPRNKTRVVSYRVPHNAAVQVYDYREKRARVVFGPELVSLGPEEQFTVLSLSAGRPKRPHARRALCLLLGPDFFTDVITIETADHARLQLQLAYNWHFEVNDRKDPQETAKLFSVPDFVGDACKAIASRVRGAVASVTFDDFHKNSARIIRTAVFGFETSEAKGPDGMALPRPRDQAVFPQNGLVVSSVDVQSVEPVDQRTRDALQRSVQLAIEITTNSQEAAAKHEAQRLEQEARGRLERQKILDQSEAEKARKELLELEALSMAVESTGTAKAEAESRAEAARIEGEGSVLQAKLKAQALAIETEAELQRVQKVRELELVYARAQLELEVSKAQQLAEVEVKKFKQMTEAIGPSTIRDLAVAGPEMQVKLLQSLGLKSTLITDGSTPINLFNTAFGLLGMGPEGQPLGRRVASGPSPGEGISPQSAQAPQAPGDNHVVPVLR
Flag-MVP EA/TA mutant (Q14764, form named): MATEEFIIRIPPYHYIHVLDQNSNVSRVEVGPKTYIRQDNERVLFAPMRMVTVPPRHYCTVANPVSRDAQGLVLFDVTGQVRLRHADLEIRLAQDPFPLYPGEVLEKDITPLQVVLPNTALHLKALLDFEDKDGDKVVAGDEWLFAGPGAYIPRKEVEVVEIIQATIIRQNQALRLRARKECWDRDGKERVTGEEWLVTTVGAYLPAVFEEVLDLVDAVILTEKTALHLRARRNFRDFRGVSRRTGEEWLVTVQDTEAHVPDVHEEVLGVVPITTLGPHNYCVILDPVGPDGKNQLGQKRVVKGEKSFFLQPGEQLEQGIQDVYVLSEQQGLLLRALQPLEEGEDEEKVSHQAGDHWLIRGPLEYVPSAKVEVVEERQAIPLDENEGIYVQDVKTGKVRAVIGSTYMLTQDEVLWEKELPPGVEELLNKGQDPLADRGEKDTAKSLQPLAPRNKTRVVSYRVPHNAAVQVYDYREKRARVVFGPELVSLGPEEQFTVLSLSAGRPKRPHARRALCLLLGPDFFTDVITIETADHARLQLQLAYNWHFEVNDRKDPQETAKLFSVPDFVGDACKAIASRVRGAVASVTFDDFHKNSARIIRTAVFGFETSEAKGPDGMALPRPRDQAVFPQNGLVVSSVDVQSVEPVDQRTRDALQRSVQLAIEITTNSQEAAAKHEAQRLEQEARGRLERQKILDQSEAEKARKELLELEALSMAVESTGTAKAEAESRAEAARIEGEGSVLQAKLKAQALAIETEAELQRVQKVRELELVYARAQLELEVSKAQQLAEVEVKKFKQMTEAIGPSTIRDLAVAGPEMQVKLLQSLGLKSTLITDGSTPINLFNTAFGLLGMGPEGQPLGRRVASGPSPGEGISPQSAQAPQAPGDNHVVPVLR

How the values were obtained:
[1] = biological target: T1, ectopic PTPN18 (co-IP of Fig. 1D) (UniProt Q99952); assay: co-IP; ectopic tagged proteins in 293T cells, lysed 48 h after transfection in RIPA buffer, primary antibody overnight at 4 °C, protein A/G agarose, western blot
T1 sequence: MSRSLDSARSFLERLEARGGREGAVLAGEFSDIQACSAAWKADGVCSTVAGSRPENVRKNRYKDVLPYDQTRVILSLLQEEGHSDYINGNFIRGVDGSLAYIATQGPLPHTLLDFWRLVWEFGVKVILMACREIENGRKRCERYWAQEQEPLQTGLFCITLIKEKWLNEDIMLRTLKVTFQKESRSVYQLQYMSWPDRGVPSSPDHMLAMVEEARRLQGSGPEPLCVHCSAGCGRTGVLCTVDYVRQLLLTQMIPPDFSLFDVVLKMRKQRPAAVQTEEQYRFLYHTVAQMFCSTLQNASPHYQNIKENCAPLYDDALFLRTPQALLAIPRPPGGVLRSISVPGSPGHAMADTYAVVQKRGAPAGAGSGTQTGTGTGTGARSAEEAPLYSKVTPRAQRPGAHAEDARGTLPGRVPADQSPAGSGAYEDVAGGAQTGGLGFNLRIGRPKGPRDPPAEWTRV

[2] = biological target: T2, PTPN18 (endogenous) (human (endogenous in MCF7 and T-47D)) (UniProt Q99952); assay: co-IP; endogenous proteins, lysates of MCF7 and T-47D cells in RIPA buffer, primary antibody overnight at 4 °C, protein A/G agarose, western blot
T2 sequence: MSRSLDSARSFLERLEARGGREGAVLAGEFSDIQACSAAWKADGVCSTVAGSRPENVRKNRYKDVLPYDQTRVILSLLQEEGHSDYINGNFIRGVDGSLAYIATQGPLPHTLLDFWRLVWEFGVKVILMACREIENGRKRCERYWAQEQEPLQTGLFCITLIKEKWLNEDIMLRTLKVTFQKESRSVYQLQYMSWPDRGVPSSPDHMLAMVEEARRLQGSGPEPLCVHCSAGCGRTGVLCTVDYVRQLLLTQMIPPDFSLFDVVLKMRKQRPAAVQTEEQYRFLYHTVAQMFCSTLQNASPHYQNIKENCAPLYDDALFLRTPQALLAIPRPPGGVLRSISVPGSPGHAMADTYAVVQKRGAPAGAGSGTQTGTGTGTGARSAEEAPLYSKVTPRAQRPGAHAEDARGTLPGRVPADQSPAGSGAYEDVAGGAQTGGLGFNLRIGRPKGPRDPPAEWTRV

[3] = biological target: importin β1 (UniProt Q14974); assay: co-IP; PTPN18 and members of the importin family; cells and constructs not stated
[4] = biological target: importin β2 (co-IP, Fig. 3D) (UniProt Q92973); assay: as above
[5] = biological target: T3, importin β3 (UniProt O00410); assay: as above
T3 sequence: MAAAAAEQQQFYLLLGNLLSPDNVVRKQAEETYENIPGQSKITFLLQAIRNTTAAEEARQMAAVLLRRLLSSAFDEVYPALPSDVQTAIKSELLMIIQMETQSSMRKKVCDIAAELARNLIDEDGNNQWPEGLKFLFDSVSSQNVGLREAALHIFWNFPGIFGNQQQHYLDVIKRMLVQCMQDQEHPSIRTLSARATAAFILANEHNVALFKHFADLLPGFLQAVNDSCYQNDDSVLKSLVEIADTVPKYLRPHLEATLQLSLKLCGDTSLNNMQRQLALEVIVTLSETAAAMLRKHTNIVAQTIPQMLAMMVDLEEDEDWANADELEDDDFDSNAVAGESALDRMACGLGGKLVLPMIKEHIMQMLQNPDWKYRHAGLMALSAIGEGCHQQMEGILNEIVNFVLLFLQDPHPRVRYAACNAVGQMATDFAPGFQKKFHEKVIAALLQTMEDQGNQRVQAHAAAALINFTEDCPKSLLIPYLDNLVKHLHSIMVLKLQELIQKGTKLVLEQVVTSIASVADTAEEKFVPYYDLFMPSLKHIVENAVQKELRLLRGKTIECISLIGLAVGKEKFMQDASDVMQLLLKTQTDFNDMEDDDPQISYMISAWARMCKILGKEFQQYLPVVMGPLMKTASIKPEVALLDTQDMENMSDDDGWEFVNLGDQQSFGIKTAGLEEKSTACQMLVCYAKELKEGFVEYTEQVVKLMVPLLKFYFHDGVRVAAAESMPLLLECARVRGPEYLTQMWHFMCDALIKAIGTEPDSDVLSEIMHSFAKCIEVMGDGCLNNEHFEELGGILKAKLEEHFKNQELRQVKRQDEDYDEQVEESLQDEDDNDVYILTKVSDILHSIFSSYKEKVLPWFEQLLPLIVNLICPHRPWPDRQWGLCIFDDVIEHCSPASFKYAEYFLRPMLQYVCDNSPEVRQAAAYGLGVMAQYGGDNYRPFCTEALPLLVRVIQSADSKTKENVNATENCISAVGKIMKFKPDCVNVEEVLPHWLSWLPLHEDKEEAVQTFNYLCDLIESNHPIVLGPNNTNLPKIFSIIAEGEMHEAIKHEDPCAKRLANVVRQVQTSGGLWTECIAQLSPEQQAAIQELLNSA

[6] = biological target: MVP (endogenous) (human (endogenous in MCF7 and T-47D)) (UniProt Q14764); assay: co-IP; endogenous proteins, lysates of MCF7 and T-47D cells in RIPA buffer, primary antibody overnight at 4 °C, protein A/G agarose, western blot
[7] = biological target: ectopic MVP (co-IP of Fig. 1D) (UniProt Q14764); assay: co-IP; ectopic tagged proteins in 293T cells, lysed 48 h after transfection in RIPA buffer, primary antibody overnight at 4 °C, protein A/G agarose, western blot
[8] = biological target: Flag-MVP (UniProt Q14764); assay: as above
[9] = biological target: Flag-MVP EA/TA mutant (UniProt Q14764); assay: as above

Q: Which binding [1] does the source give for “ectopic MVP (co-IP of Fig. 1D) (from UniProt Q14764 1-893)” here?
A: binds

Q: With “MVP (endogenous) (from UniProt Q14764 1-893)” as the molecule, how does the binding [2] read?
A: binds

B1: PTPN18 (co-IP with the importin family, Fig. 3D) (protein, UniProt Q99952 1-460)
chain: MSRSLDSARSFLERLEARGGREGAVLAGEFSDIQACSAAWKADGVCSTVAGSRPENVRKNRYKDVLPYDQTRVILSLLQEEGHSDYINGNFIRGVDGSLAYIATQGPLPHTLLDFWRLVWEFGVKVILMACREIENGRKRCERYWAQEQEPLQTGLFCITLIKEKWLNEDIMLRTLKVTFQKESRSVYQLQYMSWPDRGVPSSPDHMLAMVEEARRLQGSGPEPLCVHCSAGCGRTGVLCTVDYVRQLLLTQMIPPDFSLFDVVLKMRKQRPAAVQTEEQYRFLYHTVAQMFCSTLQNASPHYQNIKENCAPLYDDALFLRTPQALLAIPRPPGGVLRSISVPGSPGHAMADTYAVVQKRGAPAGAGSGTQTGTGTGTGARSAEEAPLYSKVTPRAQRPGAHAEDARGTLPGRVPADQSPAGSGAYEDVAGGAQTGGLGFNLRIGRPKGPRDPPAEWTRV
Q: For B1, which binding [3] is on record?
A: no binding

Q: What about the binding [4] of the same molecule?
A: binds

Q: What about the binding [5] of the same molecule?
A: no binding

B2: PTPN18 (endogenous) (protein, UniProt Q99952 1-460)
chain: MSRSLDSARSFLERLEARGGREGAVLAGEFSDIQACSAAWKADGVCSTVAGSRPENVRKNRYKDVLPYDQTRVILSLLQEEGHSDYINGNFIRGVDGSLAYIATQGPLPHTLLDFWRLVWEFGVKVILMACREIENGRKRCERYWAQEQEPLQTGLFCITLIKEKWLNEDIMLRTLKVTFQKESRSVYQLQYMSWPDRGVPSSPDHMLAMVEEARRLQGSGPEPLCVHCSAGCGRTGVLCTVDYVRQLLLTQMIPPDFSLFDVVLKMRKQRPAAVQTEEQYRFLYHTVAQMFCSTLQNASPHYQNIKENCAPLYDDALFLRTPQALLAIPRPPGGVLRSISVPGSPGHAMADTYAVVQKRGAPAGAGSGTQTGTGTGTGARSAEEAPLYSKVTPRAQRPGAHAEDARGTLPGRVPADQSPAGSGAYEDVAGGAQTGGLGFNLRIGRPKGPRDPPAEWTRV
Q: How did the binding [6] turn out when B2 was run?
A: binds

B3: ectopic PTPN18 (co-IP of Fig. 1D) (protein, UniProt Q99952 1-460)
chain: MSRSLDSARSFLERLEARGGREGAVLAGEFSDIQACSAAWKADGVCSTVAGSRPENVRKNRYKDVLPYDQTRVILSLLQEEGHSDYINGNFIRGVDGSLAYIATQGPLPHTLLDFWRLVWEFGVKVILMACREIENGRKRCERYWAQEQEPLQTGLFCITLIKEKWLNEDIMLRTLKVTFQKESRSVYQLQYMSWPDRGVPSSPDHMLAMVEEARRLQGSGPEPLCVHCSAGCGRTGVLCTVDYVRQLLLTQMIPPDFSLFDVVLKMRKQRPAAVQTEEQYRFLYHTVAQMFCSTLQNASPHYQNIKENCAPLYDDALFLRTPQALLAIPRPPGGVLRSISVPGSPGHAMADTYAVVQKRGAPAGAGSGTQTGTGTGTGARSAEEAPLYSKVTPRAQRPGAHAEDARGTLPGRVPADQSPAGSGAYEDVAGGAQTGGLGFNLRIGRPKGPRDPPAEWTRV
Q: B3 was tested. Which binding [7] did it give?
A: binds

B4: PTPN18-GFP WT (protein, UniProt Q99952 1-460)
chain: MSRSLDSARSFLERLEARGGREGAVLAGEFSDIQACSAAWKADGVCSTVAGSRPENVRKNRYKDVLPYDQTRVILSLLQEEGHSDYINGNFIRGVDGSLAYIATQGPLPHTLLDFWRLVWEFGVKVILMACREIENGRKRCERYWAQEQEPLQTGLFCITLIKEKWLNEDIMLRTLKVTFQKESRSVYQLQYMSWPDRGVPSSPDHMLAMVEEARRLQGSGPEPLCVHCSAGCGRTGVLCTVDYVRQLLLTQMIPPDFSLFDVVLKMRKQRPAAVQTEEQYRFLYHTVAQMFCSTLQNASPHYQNIKENCAPLYDDALFLRTPQALLAIPRPPGGVLRSISVPGSPGHAMADTYAVVQKRGAPAGAGSGTQTGTGTGTGARSAEEAPLYSKVTPRAQRPGAHAEDARGTLPGRVPADQSPAGSGAYEDVAGGAQTGGLGFNLRIGRPKGPRDPPAEWTRV
Q: Which binding [8] does the source give for B4 here?
A: binds

B5: PTPN18-GFP ΔpNLS1 (protein, UniProt Q99952)
chain: MSRSLDSARSFLERLEARGGREGAVLAGEFSDIQACSAAWKADGVCSTVAGSRPENVNFIRGVDGSLAYIATQGPLPHTLLDFWRLVWEFGVKVILMACREIENGRKRCERYWAQEQEPLQTGLFCITLIKEKWLNEDIMLRTLKVTFQKESRSVYQLQYMSWPDRGVPSSPDHMLAMVEEARRLQGSGPEPLCVHCSAGCGRTGVLCTVDYVRQLLLTQMIPPDFSLFDVVLKMRKQRPAAVQTEEQYRFLYHTVAQMFCSTLQNASPHYQNIKENCAPLYDDALFLRTPQALLAIPRPPGGVLRSISVPGSPGHAMADTYAVVQKRGAPAGAGSGTQTGTGTGTGARSAEEAPLYSKVTPRAQRPGAHAEDARGTLPGRVPADQSPAGSGAYEDVAGGAQTGGLGFNLRIGRPKGPRDPPAEWTRV
Q: For B5, which binding [8] is on record?
A: binds

B6: PTPN18-GFP ΔpNLS2C (protein, UniProt Q99952)
chain: MSRSLDSARSFLERLEARGGREGAVLAGEFSDIQACSAAWKADGVCSTVAGSRPENVRKNRYKDVLPYDQTRVILSLLQEEGHSDYINGNFIRGVDGSLAYIATQGPLPHTLLDFWRLVWEFGVKVILMACWAQEQEPLQTGLFCITLIKEKWLNEDIMLRTLKVTFQKESRSVYQLQYMSWPDRGVPSSPDHMLAMVEEARRLQGSGPEPLCVHCSAGCGRTGVLCTVDYVRQLLLTQMIPPDFSLFDVVLKMRKQRPAAVQTEEQYRFLYHTVAQMFCSTLQNASPHYQNIKENCAPLYDDALFLRTPQALLAIPRPPGGVLRSISVPGSPGHAMADTYAVVQKRGAPAGAGSGTQTGTGTGTGARSAEEAPLYSKVTPRAQRPGAHAEDARGTLPGRVPADQSPAGSGAYEDVAGGAQTGGLGFNLRIGRPKGPRDPPAEWTRV
Q: For B6, which binding [8] is on record?
A: no binding

B7: HA-PTPN18 (protein, UniProt Q99952 1-460)
chain: MSRSLDSARSFLERLEARGGREGAVLAGEFSDIQACSAAWKADGVCSTVAGSRPENVRKNRYKDVLPYDQTRVILSLLQEEGHSDYINGNFIRGVDGSLAYIATQGPLPHTLLDFWRLVWEFGVKVILMACREIENGRKRCERYWAQEQEPLQTGLFCITLIKEKWLNEDIMLRTLKVTFQKESRSVYQLQYMSWPDRGVPSSPDHMLAMVEEARRLQGSGPEPLCVHCSAGCGRTGVLCTVDYVRQLLLTQMIPPDFSLFDVVLKMRKQRPAAVQTEEQYRFLYHTVAQMFCSTLQNASPHYQNIKENCAPLYDDALFLRTPQALLAIPRPPGGVLRSISVPGSPGHAMADTYAVVQKRGAPAGAGSGTQTGTGTGTGARSAEEAPLYSKVTPRAQRPGAHAEDARGTLPGRVPADQSPAGSGAYEDVAGGAQTGGLGFNLRIGRPKGPRDPPAEWTRV
Q: Which binding [9] does the source give for B7 here?
A: no binding
